# Assay results from the supplement of paper PMC8728848.
# The list shows a part of the results.
# B1: CLECb-Precomplexed (Mus musculus), P43025 (protein)
# chain: MAKNGLVLCILVVSLLLDQTDGYPSRMKARKHSKRRVKAKDDDLKSQVEKLWREVNALKEMQALQTVCLRGTKVHKKCYLASEGLKHYHEANEDCISKGGTLVVPRNSDEINALRDYGKRSLPGVNDFWLGINDMVTEGKFLDVHGFAVSFLNWDRAQPSGGKRENCVLFSQSAQGKWSDEACRSSKRYICEFIIPTRTRPLEQKLISEEDLAANDILDYKDDDDKV
# Legend:
# Assay in all cases: glycan array binding signal (z-score within array); higher = stronger binding
# Conditions in all cases: glycan notation: IUPAC condensed, linker removed
# [1] = target: GlcNAc(b1-4)GlcNAc(b1-4)GlcNAc(b1-4)GlcNAc(b1-4)GlcNAc(b1-4)GlcNAc
# Method in brief: (§1)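 Glycan array data came from 3228 arrays in the Consortium for Functional Glycomics database, and only arrays with an available protein sequence were kept. Glycan names were put into IUPAC-condensed notation, and columns mapping to the same glycan were averaged. The binding signal is a within-array Z-score, averaged across arrays of one protein sequence run at different concentrations or buffers and across linkers. A negative Z-score can be read as non-binding.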
# [2] = target: GlcNAc(b1-4)[GlcNAc(b1-6)]GalNAc
# Method in brief: as §1
# [3] = target: GlcNAc(b1-6)Gal(b1-4)GlcNAc
# Method in brief: as §1
# GlcNAc(b1-6)GalNAc = target: GlcNAc(b1-6)GalNAc
# Method in brief: as §1
# [4] = target: GlcNAc6S(b1-3)Gal(b1-4)GlcNAc
# Method in brief: as §1
# Kdn(a2-3)Gal(b1-3)GalNAc = target: Kdn(a2-3)Gal(b1-3)GalNAc
# Method in brief: as §1
# Kdn(a2-3)Gal(b1-3)GlcNAc = target: Kdn(a2-3)Gal(b1-3)GlcNAc
# Method in brief: as §1
# Kdn(a2-3)Gal(b1-4)Glc = target: Kdn(a2-3)Gal(b1-4)Glc
# Method in brief: as §1
# Kdn(a2-3)Gal(b1-4)GlcNAc = target: Kdn(a2-3)Gal(b1-4)GlcNAc
# Method in brief: as §1
# [5] = target: Kdn(a2-3)Gal(b1-4)[Fuc(a1-3)]GlcNAc
# Method in brief: as §1
# Kdn(a2-6)Gal(b1-4)GlcNAc = target: Kdn(a2-6)Gal(b1-4)GlcNAc
# Method in brief: as §1
# [6] = target: Man(a1-2)Man(a1-2)Man(a1-3)Man
# Method in brief: as §1
# [7] = target: Man(a1-2)Man(a1-2)Man(a1-6)[Man(a1-3)]Man
# Method in brief: as §1
# Man(a1-2)Man(a1-3)Man = target: Man(a1-2)Man(a1-3)Man
# Method in brief: as §1
# [8] = target: Man(a1-2)Man(a1-3)[Man(a1-2)Man(a1-6)]Man
# Method in brief: as §1
# [9] = target: Man(a1-2)Man(a1-3)[Man(a1-2)Man(a1-6)]Man(a1-6)[Man(a1-2)Man(a1-2)Man(a1-3)]Man
# Method in brief: as §1
# [10] = target: Man(a1-2)Man(a1-3)[Man(a1-2)Man(a1-6)]Man(a1-6)[Man(a1-2)Man(a1-2)Man(a1-3)]Man(b1-4)GlcNAc(b1-4)GlcNAc
# Method in brief: as §1
# [11] = target: Man(a1-2)Man(a1-3)[Man(a1-6)]Man(a1-6)[Man(a1-2)Man(a1-3)]Man(b1-4)GlcNAc(b1-4)GlcNAc
# Method in brief: as §1
# [12] = target: Man(a1-2)Man(a1-6)[Man(a1-3)]Man(a1-6)[Man(a1-2)Man(a1-2)Man(a1-3)]Man
# Method in brief: as §1
# [13] = target: Man(a1-2)Man(a1-6)[Man(a1-3)]Man(a1-6)[Man(a1-2)Man(a1-2)Man(a1-3)]Man(b1-4)GlcNAc(b1-4)GlcNAc
# Method in brief: as §1
# Man(a1-3)[Man(a1-6)]Man = target: Man(a1-3)[Man(a1-6)]Man
# Method in brief: as §1
# [14] = target: Man(a1-3)[Man(a1-6)]Man(a1-6)[Man(a1-2)Man(a1-3)]Man(b1-4)GlcNAc(b1-4)GlcNAc
# Method in brief: as §1
# [15] = target: Man(a1-3)[Man(a1-6)]Man(a1-6)[Man(a1-3)]Man
# Method in brief: as §1
# [16] = target: Man(a1-3)[Man(a1-6)]Man(a1-6)[Man(a1-3)]Man(b1-4)GlcNAc(b1-4)GlcNAc
# Method in brief: as §1
# [17] = target: Man(a1-3)[Man(a1-6)]Man(b1-4)GlcNAc(b1-4)GlcNAc
# Method in brief: as §1
# [18] = target: Man(a1-3)[Man(a1-6)]Man(b1-4)GlcNAc(b1-4)[Fuc(a1-6)]GlcNAc
# Method in brief: as §1
# Man(a1-6)Man = target: Man(a1-6)Man
# Method in brief: as §1
# Man(b1-4)GlcNAc = target: Man(b1-4)GlcNAc
# Method in brief: as §1
# MurNAc(b1-4)GlcNAc = target: MurNAc(b1-4)GlcNAc
# Method in brief: as §1
# Neu5Ac(a2-3)Gal = target: Neu5Ac(a2-3)Gal
# Method in brief: as §1
# [19] = target: Neu5Ac(a2-3)Gal(b1-3)GalNAc
# Method in brief: as §1
# [20] = target: Neu5Ac(a2-3)Gal(b1-3)GalNAc(b1-3)Gal(a1-4)Gal(b1-4)Glc
# Method in brief: as §1
# [21] = target: Neu5Ac(a2-3)Gal(b1-3)GalNAc(b1-4)[Neu5Ac(a2-3)]Gal(b1-4)Glc
# Method in brief: as §1
# [22] = target: Neu5Ac(a2-3)Gal(b1-3)GalNAc(b1-4)[Neu5Ac(a2-8)Neu5Ac(a2-3)]Gal(b1-4)Glc
# Method in brief: as §1
# [23] = target: Neu5Ac(a2-3)Gal(b1-3)GalNAc6S
# Method in brief: as §1
# [24] = target: Neu5Ac(a2-3)Gal(b1-3)GlcNAc
# Method in brief: as §1
# [25] = target: Neu5Ac(a2-3)Gal(b1-3)GlcNAc(b1-2)Man
# Method in brief: as §1
# [26] = target: Neu5Ac(a2-3)Gal(b1-3)GlcNAc(b1-2)Man(a1-3)[GlcNAc(b1-4)][Neu5Ac(a2-3)Gal(b1-3)GlcNAc(b1-2)Man(a1-6)]Man(b1-4)GlcNAc(b1-4)GlcNAc
# Method in brief: as §1
# [27] = target: Neu5Ac(a2-3)Gal(b1-3)GlcNAc(b1-2)Man(a1-3)[Neu5Ac(a2-3)Gal(b1-3)GlcNAc(b1-2)Man(a1-6)]Man(b1-4)GlcNAc(b1-4)GlcNAc
# Method in brief: as §1
# [28] = target: Neu5Ac(a2-3)Gal(b1-3)GlcNAc(b1-3)Gal(b1-3)GlcNAc
# Method in brief: as §1
# [29] = target: Neu5Ac(a2-3)Gal(b1-3)GlcNAc(b1-3)Gal(b1-4)GlcNAc
# Method in brief: as §1
# [30] = target: Neu5Ac(a2-3)Gal(b1-3)GlcNAc(b1-3)GalNAc
# Method in brief: as §1
# [31] = target: Neu5Ac(a2-3)Gal(b1-3)GlcNAc(b1-4)Gal(b1-4)Glc
# Method in brief: as §1
# [32] = target: Neu5Ac(a2-3)Gal(b1-3)GlcNAc(b1-6)GalNAc
# Method in brief: as §1
# [33] = target: Neu5Ac(a2-3)Gal(b1-3)GlcNAc6S
# Method in brief: as §1
binder,measurement,setting,value
B1,glycan array binding signal (z-score),[1],-0.322
same,glycan array binding signal (z-score),[2],0.264
same,glycan array binding signal (z-score),[3],-0.575
same,glycan array binding signal (z-score),GlcNAc(b1-6)GalNAc,-0.354
same,glycan array binding signal (z-score),[4],-0.319
same,glycan array binding signal (z-score),Kdn(a2-3)Gal(b1-3)GalNAc,-0.702
same,glycan array binding signal (z-score),Kdn(a2-3)Gal(b1-3)GlcNAc,-0.459
same,glycan array binding signal (z-score),Kdn(a2-3)Gal(b1-4)Glc,-0.106
same,glycan array binding signal (z-score),Kdn(a2-3)Gal(b1-4)GlcNAc,-0.42
same,glycan array binding signal (z-score),[5],-0.433
same,glycan array binding signal (z-score),Kdn(a2-6)Gal(b1-4)GlcNAc,-0.461
same,glycan array binding signal (z-score),[6],0.144
same,glycan array binding signal (z-score),[7],0.553
same,glycan array binding signal (z-score),Man(a1-2)Man(a1-3)Man,-0.151
same,glycan array binding signal (z-score),[8],-0.135
same,glycan array binding signal (z-score),[9],-0.161
same,glycan array binding signal (z-score),[10],-0.067
same,glycan array binding signal (z-score),[11],0.329
same,glycan array binding signal (z-score),[12],-0.257
same,glycan array binding signal (z-score),[13],0.003
same,glycan array binding signal (z-score),Man(a1-3)[Man(a1-6)]Man,-0.427
same,glycan array binding signal (z-score),[14],-0.07
same,glycan array binding signal (z-score),[15],-0.045
same,glycan array binding signal (z-score),[16],-0.24
same,glycan array binding signal (z-score),[17],0.041
same,glycan array binding signal (z-score),[18],-0.2
same,glycan array binding signal (z-score),Man(a1-6)Man,0.07
same,glycan array binding signal (z-score),Man(b1-4)GlcNAc,-0.346
same,glycan array binding signal (z-score),MurNAc(b1-4)GlcNAc,-0.525
same,glycan array binding signal (z-score),Neu5Ac(a2-3)Gal,-0.063
same,glycan array binding signal (z-score),[19],-0.408
same,glycan array binding signal (z-score),[20],-0.16
same,glycan array binding signal (z-score),[21],-0.411
same,glycan array binding signal (z-score),[22],-0.49
same,glycan array binding signal (z-score),[23],-0.046
same,glycan array binding signal (z-score),[24],-0.576
same,glycan array binding signal (z-score),[25],-0.413
same,glycan array binding signal (z-score),[26],-0.444
same,glycan array binding signal (z-score),[27],-0.038
same,glycan array binding signal (z-score),[28],-0.296
same,glycan array binding signal (z-score),[29],-0.05
same,glycan array binding signal (z-score),[30],0.041
same,glycan array binding signal (z-score),[31],-0.678
same,glycan array binding signal (z-score),[32],1.23
same,glycan array binding signal (z-score),[33],0.185
